Reference: the supplement of paper PMC10126150
Values marked as one replicate rest on one cluster of the flow cell; about a third of the high ones do not repeat.

Each sequence was assayed on ATP (assay: switch fluorescence ratio, 500 uM ATP over buffer (Cy3 cluster intensity, sum of 5 cycles each) (fold (ratio)); higher = stronger signal-on switching upon ATP binding; sequences stand for … in TCGTCGGCAGCGTCAGATGTGTATAAGAGACAGTTTTTTTTTTTTTTTTTTTTTTTTT…TC). Details: aptamer strand: ATP DNA aptamer (quencher-CACCTGGGGGAGTATTGCGGAGGAAGG + anchor), 100 nM annealed; ATP concentration: 500 uM; one replicate.
Summary of the method: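 Switching-strand clusters labelled with Cy3 on a modified Illumina MiSeq flow-cell were annealed to 100 nM quencher-labelled ATP aptamer, imaged in selection buffer, and re-imaged after 15 min with 500 uM ATP at 22 °C. This was done over five cycles with NaOH stripping and re-annealing in between. The fluorescence ratio is summed target-cycle over summed buffer-cycle Cy3 intensity per cluster, averaged per switch-domain sequence, excluding clusters outside 100-1000 RFU.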
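Note: ATP exposure 15 min at 22 °C before imaging.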

| Sequence | switch fluorescence ratio |
| --- | --- |
| CTTCGCGAA | 1.91 |
| CTTCGGCGTT | 1.02 |
| CTTCGGGTCC | 1.02 |
| CTTCGGTAAT | 1.68 |
| CTTCGTGTCC | 1.11 |
| CTTCGTTAGA | 0.991 |
| CTTCTATTGA | 1.01 |
| CTTCTGGAAT | 1.59 |
| CTTCTTAAAC | 1 |
| CTTCTTACCA | 1.02 |
| CTTCTTACCT | 1.13 |
| CTTCTTTATT | 1.06 |
| CTTGAATGT | 0.966 |
| CTTGAATTGC | 0.978 |
| CTTGACCGTC | 1.1 |
| CTTGAGGTAT | 1.03 |
| CTTGAGGTCC | 1.02 |
| CTTGATCGAC | 1.02 |
| CTTGATGTCA | 1.04 |
| CTTGCACTGA | 1.02 |
| CTTGCCGCAG | 2.44 |
| CTTGGAACTC | 1 |
| CTTGGACTTG | 0.929 |
| CTTGGACTTT | 0.94 |
| CTTGGCATGG | 1.07 |

| Sequence | switch fluorescence ratio |
| --- | --- |
| CTTGGCGGTA | 1 |
| CTTGGGACAG | 0.996 |
| CTTGGGGTAT | 1.05 |
| CTTGGTTACC | 1.05 |
| CTTGGTTTCG | 0.992 |
| CTTGTCGGGA | 1.02 |
| CTTGTCGGTG | 0.973 |
| CTTGTCGTCT | 1.05 |
| CTTGTGATAA | 1.03 |
| CTTGTGCTTC | 0.976 |
| CTTGTGTAGA | 0.962 |
| CTTGTTAAAG | 0.998 |
| CTTGTTATAT | 1.05 |
| CTTGTTATGA | 0.957 |
| CTTGTTGCCC | 1.04 |
| CTTTACGCTG | 1.05 |
| CTTTAGATTG | 1.01 |
| CTTTAGTCGA | 1.02 |
| CTTTAGTTGT | 0.977 |
| CTTTATAAAT | 0.984 |
| CTTTATACTA | 0.972 |
| CTTTATCCAG | 0.975 |
| CTTTATGTAT | 1.02 |
| CTTTCACATG | 0.987 |
| CTTTCCTGA | 1.02 |

| Sequence | switch fluorescence ratio |
| --- | --- |
| CTTTCGTCAC | 1.26 |
| CTTTCGTGTT | 1.01 |
| CTTTCTAAA | 0.962 |
| CTTTCTGTTA | 0.98 |
| CTTTGAAAAG | 0.99 |
| CTTTGCAAAA | 1.15 |
| CTTTGCCTTT | 1.51 |
| CTTTGCGAT | 1.69 |
| CTTTGCTGGG | 0.947 |
| CTTTGGAGGA | 0.987 |
| CTTTGGCGGA | 0.984 |
| CTTTGGCTCA | 1.04 |
| CTTTGGTCGT | 0.929 |
| CTTTGGTGCG | 0.951 |
| CTTTGTGGAA | 0.974 |
| CTTTGTGGAT | 0.994 |
| CTTTGTTAAC | 0.958 |
| CTTTGTTCT | 1.02 |
| CTTTTAAGAG | 1.06 |
| CTTTTACCTC | 1.04 |
| CTTTTAGCG | 1 |
| CTTTTCAATG | 1.02 |
| CTTTTGACGG | 1 |
| CTTTTGTTGC | 0.999 |
| CTTTTTCAGG | 1.04 |

| Sequence | switch fluorescence ratio |
| --- | --- |
| CTTTTTGCAC | 0.988 |
| CTTTTTTTCT | 0.984 |
| GAAAAATGCT | 0.964 |
| GAAAACCAAT | 1.02 |
| GAAAACCCTT | 1.05 |
| GAAAACGGCC | 1.03 |
| GAAAATCGTT | 0.989 |
| GAAAATGAGG | 1.02 |
| GAAAATGGGT | 0.922 |
| GAAACAAA | 0.994 |
| GAAACAATGT | 1.04 |
| GAAACACCTG | 1.14 |
| GAAACTAGGT | 1.03 |
| GAAACTCGAG | 1.01 |
| GAAAGATGGG | 0.973 |
| GAAAGGAATC | 1.03 |
| GAAAGGCATT | 1 |
| GAAAGGGAGA | 1.02 |
| GAAAGTTGAG | 0.969 |
| GAAAGTTTC | 1.02 |
| GAAATACTGG | 1.06 |
| GAAATAGCG | 0.945 |
| GAAATATTCT | 1.01 |
| GAAATCGCCT | 1.06 |
| GAAATCGGGT | 1 |

| Sequence | switch fluorescence ratio |
| --- | --- |
| GAAATCTATC | 1.03 |
| GAAATGTTTT | 0.981 |
| GAAATTACCT | 1.48 |
| GAAATTGGAC | 1.06 |
| GAAATTGTAG | 0.974 |
| GAACAATTTG | 1.01 |
| GAACACGCCA | 1.33 |
| GAACAGCCAT | 1.07 |
| GAACATCAGC | 1.04 |
| GAACCAGTAT | 0.996 |
| GAACCATGAT | 0.946 |
| GAACCCGACC | 1.58 |
| GAACCCTTAT | 1.01 |
| GAACCTGGTC | 1.21 |
| GAACGAGCAT | 1.2 |
| GAACGCGATG | 1.91 |
| GAACGGAAGA | 1.09 |
| GAACGTGATG | 1.01 |
| GAACTATCA | 1.03 |
| GAACTGAGCG | 0.994 |
| GAACTGCAAC | 1.48 |
| GAACTTCAGG | 1.02 |
| GAACTTGACG | 1.02 |
| GAACTTTTCG | 1.11 |
| GAAGACAACG | 1.09 |

| Sequence | switch fluorescence ratio |
| --- | --- |
| GAAGAGAAC | 0.962 |
| GAAGAGCAGG | 1 |
| GAAGATCATG | 0.96 |
| GAAGCAGAGG | 1.23 |
| GAAGCCTCGG | 1.01 |
| GAAGCGGGTT | 1.01 |
| GAAGCGTGTT | 1.08 |
| GAAGCTAGC | 0.956 |
| GAAGCTGAGC | 1.05 |
| GAAGGCACTC | 1.06 |
| GAAGGCCAAG | 0.999 |
| GAAGGCTGCT | 1.04 |
| GAAGGCTTAT | 0.993 |
| GAAGGCTTGT | 1.02 |
| GAAGGGA | 1 |
| GAAGGGATGA | 1.02 |
| GAAGGGCGCA | 0.992 |
| GAAGGGTGCC | 1.01 |
| GAAGGTAAAC | 1.03 |
| GAAGGTCGGA | 1.02 |
| GAAGTACATC | 1.22 |
| GAAGTACGCA | 1.33 |
| GAAGTACGTG | 1.17 |
| GAAGTAGGCC | 1.05 |
| GAAGTAGGTT | 1.03 |

| Sequence | switch fluorescence ratio |
| --- | --- |
| GAAGTCGCCA | 0.98 |
| GAAGTGCATG | 0.992 |
| GAAGTGTGCT | 1.02 |
| GAAGTTACAA | 1.02 |
| GAAGTTGGAA | 1 |
| GAATACATCC | 1.06 |
| GAATAGATGG | 0.967 |
| GAATAGGCGG | 1.03 |
| GAATATGTTC | 0.991 |
| GAATATTAAT | 1.01 |
| GAATCACTTT | 1.02 |
| GAATCCGACA | 1.13 |
| GAATCCGGTA | 1.04 |
| GAATCGTGGG | 0.96 |
| GAATCTCTTG | 0.977 |
| GAATGAAGGG | 1.01 |
| GAATGAGCCG | 1.09 |
| GAATGGGGAG | 1.01 |
| GAATGGTCTT | 1.03 |
| GAATGTCATT | 1.01 |
| GAATGTGGAC | 1.03 |
| GAATGTGGTG | 0.968 |
| GAATGTTCCC | 1.01 |
| GAATGTTGTG | 1.02 |
| GAATTAACTC | 0.962 |

| Sequence | switch fluorescence ratio |
| --- | --- |
| GAATTACCTG | 1 |
| GAATTAGGGG | 1.03 |
| GAATTCAAGC | 1.03 |
| GAATTCGGGT | 1.03 |
| GAATTGAAGG | 0.985 |
| GAATTGCGCC | 0.991 |
| GAATTTAGA | 1.01 |
| GAATTTTAGA | 1.06 |
| GAATTTTGGT | 1.01 |
| GACAAAAGCC | 1.1 |
| GACAAATTTT | 0.964 |
| GACAACCAGT | 1.05 |
| GACACAGTTG | 1.01 |
| GACACCGAAA | 2.57 |
| GACACCGAAG | 0.99 |
| GACACCGACC | 1.8 |
| GACACTGGGG | 1.04 |
| GACACTTTTT | 1.02 |
| GACAGAACCT | 1.73 |
| GACAGAAGGT | 1.04 |
| GACAGATCTC | 0.999 |
| GACAGCGCAA | 3.05 |
| GACAGCTTGC | 0.992 |
| GACAGGCATA | 1.11 |
| GACAGGGCGT | 1.03 |
